Measured values from publication PMC4336329 (PLoS ONE, 2015).
Out of some 310,000 compounds screened, about 2,200 (0.71%) showed an effect of 50% or more. Effects have a minus sign here. This is one part of the list.

These compounds were tested against human ether-à-go-go-related gene (hERG) potassium channel (human, UniProt Q12809) (assay: primary screen, population patch clamp on CHO cells stably expressing hERG).
Sequence of human ether-à-go-go-related gene (hERG) potassium channel (Q12809 whole entry, looked up): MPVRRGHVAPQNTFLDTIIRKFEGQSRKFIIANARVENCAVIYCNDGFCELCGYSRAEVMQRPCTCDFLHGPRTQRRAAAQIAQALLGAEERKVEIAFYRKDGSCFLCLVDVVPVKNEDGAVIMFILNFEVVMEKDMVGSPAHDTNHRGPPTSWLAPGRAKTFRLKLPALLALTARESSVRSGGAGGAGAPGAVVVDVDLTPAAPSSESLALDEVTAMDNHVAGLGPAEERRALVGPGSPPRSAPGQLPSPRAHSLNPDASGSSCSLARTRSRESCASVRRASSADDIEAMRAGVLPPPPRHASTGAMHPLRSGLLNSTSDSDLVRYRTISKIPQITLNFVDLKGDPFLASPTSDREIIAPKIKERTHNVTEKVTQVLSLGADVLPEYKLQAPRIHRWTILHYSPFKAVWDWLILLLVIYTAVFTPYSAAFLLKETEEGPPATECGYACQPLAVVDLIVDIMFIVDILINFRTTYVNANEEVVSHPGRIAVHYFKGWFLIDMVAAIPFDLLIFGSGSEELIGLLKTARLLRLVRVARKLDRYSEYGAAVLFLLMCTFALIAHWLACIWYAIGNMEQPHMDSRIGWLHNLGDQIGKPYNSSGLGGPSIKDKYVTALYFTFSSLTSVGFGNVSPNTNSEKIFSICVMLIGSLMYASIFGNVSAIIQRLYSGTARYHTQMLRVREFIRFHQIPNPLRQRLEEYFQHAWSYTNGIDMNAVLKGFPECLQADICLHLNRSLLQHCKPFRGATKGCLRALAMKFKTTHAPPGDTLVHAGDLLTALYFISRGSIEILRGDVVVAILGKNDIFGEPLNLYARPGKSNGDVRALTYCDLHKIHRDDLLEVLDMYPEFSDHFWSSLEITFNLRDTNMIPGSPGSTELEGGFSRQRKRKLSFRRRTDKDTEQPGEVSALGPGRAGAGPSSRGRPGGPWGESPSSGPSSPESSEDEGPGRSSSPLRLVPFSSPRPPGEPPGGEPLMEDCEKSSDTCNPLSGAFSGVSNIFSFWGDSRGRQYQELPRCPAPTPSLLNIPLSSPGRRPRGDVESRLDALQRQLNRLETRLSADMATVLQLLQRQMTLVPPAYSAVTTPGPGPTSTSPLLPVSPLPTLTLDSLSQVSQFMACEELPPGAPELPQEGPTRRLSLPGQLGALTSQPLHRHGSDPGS

Structure (SMILES)	hERG current change (%, negative = inhibition) at 1uM [%]
Cc1ccccc1P(=O)(CO)c1ccccc1C	-3.03
CCOC(=O)COc1ccc(Oc2nc(C)cc(OC)n2)nn1	-5.04
O=C(Nc1ccc(S(=O)(=O)Nc2ccc(F)cc2)cc1)c1ccc(CN2CCOCC2)cc1	2.42
CCCn1c(=O)c(C(=O)NNS(=O)(=O)c2ccc(NC(=O)OC)cc2)c(O)c2ccccc21	11.8
CCc1nnc(NC(=O)CCC(=O)NCC2CCCO2)s1 (stereo not drawn)	-9.38
CCOC(=O)c1c(C)[nH]c(C)c1C(=O)COC(=O)/C=C/c1ccc(OC(F)F)cc1	0.906
Cc1ccc2nc(-c3cccnc3)cc(C(=O)N3CCN(c4ccc([N+](=O)[O-])cc4)CC3)c2c1	-24
CCCOc1ccc(N2C(=O)CC(NCc3ccc(S(N)(=O)=O)cc3)C2=O)cc1 (stereo not drawn)	7.72
CSc1nc2[nH]c3c(c2c2nncn12)CC(C)(C)OC3	6.38
Cc1ccc(C)c(S(=O)(=O)N/N=C/c2cccnc2)c1	4.13
N#Cc1ccc(C(=O)NCCCSc2ccccc2)cc1	6.75
CN1CCN(C(=O)CCCN2C(=O)/C(=C/c3ccccc3)SC2=S)CC1	5.29
CCn1nc2cc(C(=O)NCC34CC5CC(CC(C5)C3)C4)ccc2c1OC	5.1
O=C(NCCc1ccccc1Cl)C1CCC(=O)N(CCCc2ccccc2)C1 (stereo not drawn)	-10.7
CC1(C)Cc2c(sc3nc4n(c(=N)c23)CCCCC4)CO1.Cl	6.04
COCCCN1CCN(C2Cc3ccccc3Sc3ccc(Cl)cc32)CC1.O=C(O)/C=C\C(=O)O (stereo not drawn)	-43.4
COC(=O)c1cc(O)cc(OC)c1C(=O)c1c(O)cc(C)cc1O	10.2
Cc1ccc(NC(=O)COC(=O)C2=NN(c3ccccc3)C(=O)CC2)c(Br)c1	2.03
CC(C)=C1C(=O)NN(c2ccc(F)c(Cl)c2)C1=O	21.3
CC(C)CCN1CCN(Cc2cc(F)ccc2-n2cccn2)CC1CCO (stereo not drawn)	-6.05
CCN1CCc2c(OCC(=O)Nc3ccc4c(c3)OCCO4)cccc2C1=O	8.67
Cc1cc(C)nc(N/C(=N\S(=O)(=O)Cc2ccccc2)Nc2ccc(F)c(Cl)c2)n1	4.12
Nc1nnc(Cc2ccccc2F)s1	8.53

Structure (SMILES)	hERG current change (%, negative = inhibition) at 1uM [%]
CC1CC(C)CN(CCCNC(=O)C2CCCN(c3nnc(N4CCCC4=O)s3)C2)C1 (stereo not drawn)	7.48
Cc1c(Cl)cccc1NC(=O)CC1SC(=NCC2CCCO2)NC1=O (stereo not drawn)	6.98
COc1ccccc1NC(=O)C(C)OC(=O)C1CCN(S(=O)(=O)c2ccc(C)c(C)c2)CC1 (stereo not drawn)	8.18
COc1ccccc1Sc1ccccc1CC(C)N.Cl.O (stereo not drawn)	5.96
OCCNCCCCOc1ccccc1F	0.948
CCn1ccnc1CN1CCCC(C(=O)c2cc(C)c(OC)c(C)c2)C1 (stereo not drawn)	0.615
Br.COC(=O)Cn1c(=N)n(CCN2CCCCC2)c2ccccc21	-1.35
Clc1ccc(OCCCN2CCCC2)cc1Cl.O=C(O)C(=O)O	-20.1
COc1ccc(Cl)cc1NC(=O)CSc1sc2c(O)cc(=O)[nH]c2c1C#N	12
CCc1cccc(NC(=O)CSC2=NS(=O)(=O)c3ccccc32)c1	6.14
O=c1c(Cc2ccc(F)cc2)c(O)ccn1CCCn1ccnc1	20.5
Cc1ccc(C)c(OCC(=O)Nc2cccc(C(=O)O)c2)c1C	0.29
O=C(Nc1ccc(Oc2ccsc2C(=O)O)cc1)c1ccccc1	11.8
Cc1cccc(C)c1NC(=O)COC(=O)c1c(C)nn(-c2ccccc2)c1C	8.88
O=C(CSc1nc(-c2ccc(Cl)cc2)[nH]c(=O)n1)Nc1cccc(Cl)c1	14.6
O=C(Nc1cccc(Cl)c1)C1CCN(C(=O)c2cccs2)CC1	4.41
CCCC(=O)Nc1ccc2nn(-c3ccc(OC)cc3)nc2c1	9.9
CCN(CC)C(=O)c1scc2c1OCCO2	7.95
CCOc1ccc(NC(=O)Nc2ccc(N(C)C(C)=O)cc2)cc1	4.66
Cc1[nH]n(-c2ncc(-c3ccccc3)s2)c(=O)c1C(c1ccc(Cl)cc1)C(C#N)C#N (stereo not drawn)	9.79
COc1ccc(/C=N\NC(=O)CC(=O)Nc2cccc(Cl)c2)cc1OC	3.74
Cc1ccc(C(=O)N/C(=C\c2ccc(-c3ccccc3[N+](=O)[O-])o2)C(=O)NCCCN2CCOCC2)cc1	-11.2
CSc1ncc(C(C)=O)c(C)n1	9.21

Structure (SMILES)	hERG current change (%, negative = inhibition) at 1uM [%]
C=CCn1c(SCC(=O)NC2CCCCC2)nnc1-c1sc(N)nc1C	1.71
CN1C2=C(C#N)C(c3ccccc3)(C(F)(F)F)NC(=O)N2c2ccccc21 (stereo not drawn)	14.1
CN1CCOCCOc2ccccc2OCCOCC1	17.5
Cc1nc(C)c(NC(=O)OC(C)C)cc1NC(=O)OC(C)C	13.1
COc1ccc(/C=C/C(=O)c2cc(Cl)ccc2O)c(OC)c1	8.33
CCOc1ccc(NC(=O)COc2ccc(C(=O)NCC3CCCO3)cc2OC)cc1 (stereo not drawn)	-0.29
CCS(=O)(=O)N1CCC(C(=O)Oc2ccccc2OC)CC1	15.6
COc1ccc(NC(=S)NCCc2ccc(F)cc2)c(OC)c1	5.44
COc1ccc(S(=O)(=O)NC(N)=NCCc2ccccc2OC)cc1	2.13
CS(=O)(=O)N1CCCC(C(=O)NCCc2ccccc2)C1 (stereo not drawn)	-3.5
Oc1ccc(C[C@H]2CNCCN2CCc2cccc3ccccc23)cc1	-1.85
CN1C(=O)CC(=O)N(C)c2cc(S(=O)(=O)N(C)Cc3ccccc3)ccc21	7.47
CN(Cc1ccccc1)C(=O)c1ccc(Cl)c([N+](=O)[O-])c1	-18.2
Cc1ccc(S(=O)(=O)CCC(=O)OCc2ccc(S(=O)(=O)C(C)C)cc2)cc1	9.22
Cc1cc(=O)n2[nH]c(-c3ccco3)nc2n1	13.9
CCCC1=C([O-])C2N=CC=CC2=[N+](c2ccccn2)C1=O (stereo not drawn)	7.13
CCN(C(=O)Cn1nc(C)n2c(cc3cc(C)ccc32)c1=O)c1ccccc1	-15.9
C=CCSc1nc(O)c(CC)c(=O)n1C(C)CC (stereo not drawn)	5.6
O=C(Cc1cccc2ccccc12)Nc1ccc(OC(F)F)c(Cl)c1	14.7
N#CNC(=Nc1cccc(C(F)(F)F)c1)SCc1ccc(C(=O)O)cc1	9.54
CC1(C)Cc2c(sc(/N=C/N3CCCCCC3)c2C#N)C(C)(C)N1	14.8
O=C(Nc1nc2ccccc2[nH]1)c1ccccc1[N+](=O)[O-]	0.789
CCc1ccc(C(=O)NC(CCSC)C(=O)OC)cc1 (stereo not drawn)	8.97

Structure (SMILES)	hERG current change (%, negative = inhibition) at 1uM [%]
CCOC(=O)C[n+]1c(C)sc2ccc(OC)cc21.[Br-]	12.8
COc1cccc(-c2cc(C(=O)NCC3CCCO3)c3cc(Br)cc(C)c3n2)c1 (stereo not drawn)	17.4
Cc1ccc(N(C(=O)c2csnn2)C(C(=O)NC2CCCC2)c2cccnc2)cc1 (stereo not drawn)	8.22
CCOc1nc(NCCC2=CCCCC2)nc(N2CCOCC2)n1	1.87
O=[N+]([O-])c1ccc(O)c(/C=N\N=C2c3ccccc3-c3ccccc32)c1	9.91
O=C(c1ccco1)N1N=C(c2cccs2)CC1c1ccccc1O (stereo not drawn)	14.2
COc1cc(OC)cc(C(=O)n2cnnc2N)c1	1.66
CCC(=O)Nc1nc(C)cc(SCC(=O)OC)n1	16.3
CC(=O)c1ccc(N2CCN(S(=O)(=O)c3ccc4c(c3)CC(=O)N4)CC2)cc1	8.48
CCN(CC)S(=O)(=O)c1ccc(OC)c(NC(=O)OCc2ccccc2)c1	2
O=C(Nc1nc2ccc(F)cc2s1)C1CC(=O)N(c2ccc3c(c2)OCCO3)C1 (stereo not drawn)	6.02
Nc1nn(-c2ccccc2)c(N)c1N=Nc1ccc2c(c1)OCO2	0.368
O=C(CSc1nc2c(c(=O)[nH]1)CCC2)Nc1cccc(Cl)c1	5.77
O=S(=O)(N1CCOCC1)N1CCCN(S(=O)(=O)N2CCOCC2)CC1	2.15
Cc1ccccc1NC(=O)c1sc2nc(N3CCOCC3)c3c(c2c1N)CCCC3	13.6
Cc1ccc(S(=O)(=O)NCCCCCC(=O)NCCc2ccccc2)cc1	14
CC1(NC(=O)Cc2csc(-c3cccc(Cl)c3)n2)CCS(=O)(=O)C1 (stereo not drawn)	14.1
O=C(NCc1ccccc1)c1cccc(COc2cccc(Cl)c2)c1	7.36
O=c1c2ccccc2sc2ccc(C#CC3(O)CCCCC3)cc12	12.3
CSCC[C@H](N)C(=O)N1CCC(C(=O)N[C@@H](Cc2c[nH]c3ccccc23)C(=O)O)CC1	1.27
Cn1nnnc1-c1cc(Cl)cc(Cl)c1	11.8
